These results are taken from the supplement of paper PMC10681739.

Whole data set: some 4,100 sequences, median “arbitrary fluorescence units” near 780, cut for the highest 2% near 22,000. This is one part of the list.

In the experiment the target is T1, ETS1 (UniProt P14921).
T1 sequence: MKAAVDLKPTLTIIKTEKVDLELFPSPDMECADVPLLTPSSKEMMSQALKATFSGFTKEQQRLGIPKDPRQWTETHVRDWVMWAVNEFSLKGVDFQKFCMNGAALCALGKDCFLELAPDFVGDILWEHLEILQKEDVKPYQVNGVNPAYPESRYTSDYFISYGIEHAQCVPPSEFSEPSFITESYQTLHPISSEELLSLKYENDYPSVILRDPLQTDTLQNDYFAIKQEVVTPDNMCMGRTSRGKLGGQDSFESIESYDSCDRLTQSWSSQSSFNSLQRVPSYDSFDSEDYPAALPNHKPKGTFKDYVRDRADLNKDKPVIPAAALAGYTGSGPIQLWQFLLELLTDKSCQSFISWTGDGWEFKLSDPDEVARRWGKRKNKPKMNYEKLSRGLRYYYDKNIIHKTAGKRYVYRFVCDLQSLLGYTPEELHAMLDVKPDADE
Description: ETS1 binding intensity (PBM fluorescence), ETS1 alone (arbitrary fluorescence units); higher = stronger binding. Conditions: ETS1 concentration 1 nM; RUNX1 concentration 0 nM. A digest of the protocol: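 Full-length recombinant human ETS1 (1 nM, no RUNX1) was incubated, per standard PBM protocols, on double-stranded Agilent 4 × 180k arrays of 36-bp genomic probes whose RUNX1 partner site was mutated. Bound ETS1 was detected with anti-ETS1 antibody (Cell Signaling Technology 14069) and Alexa488-conjugated secondary antibody, then scanned on a GenePix 4400A. Binding level is spot fluorescence intensity, summarised over replicate spots (four printed per sequence) and not normalised.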
For the sequence CACCCGCCTCTACGCGCGGCCCCGGAAGCTCCTTAA, the ETS1 binding intensity was 585.

Consider ACCATTCTGTGACTTTCTGGTTTCCTTCCTTTTTGG, for which the ETS1 binding intensity is 536.

As to TGAGGAATGTTTTCCTGGGGCTGAGGGGCCAGGGTG, the ETS1 binding intensity came to 385.

For the sequence TTGTCTGCATCCTGTGCTGTCTGGTAGCTCTGGGTT, the ETS1 binding intensity was determined as 4740.

Sequence GACGAAGCGCCGTCTCACCACGTCCGGGGAAATCGG registered an ETS1 binding intensity of 712.

The sequence CGAAGGAGGAAGCTGCACAGGGTGTCTCTGGCTGGC displayed an ETS1 binding intensity of 561.

Consider GTGCAGACAGGAAATAGCTGCTCTTCGGCAGCCCGA, for which the ETS1 binding intensity amounted to 7940.

AGTCCCTCAGCCCTGCGACCAGCGGCCGGAAGCAGC showed an ETS1 binding intensity of 803.

In the case of CCTGGGGCCCCAAAACTGCCTCCTTCCTGAGGCCAG, the ETS1 binding intensity was determined as 368.

Sequence TCGAGAATCCGCCCCCGCCTCAGGAAGGGGTAGGCG showed an ETS1 binding intensity of 436.

The sequence AACGCGTCCATCCTGCGCCTCCCCGTAGGCCTTGCT returned an ETS1 binding intensity of 950.

In turn, GACTCTGGTGGAGAGAGAGGGGAAGGAAGTTGTTTT gave an ETS1 binding intensity of 525.

Regarding ACCAAGTTTCGGGCAGGATCTTCCTGTAGTTTGCCT, the ETS1 binding intensity was found to be 566.

GAAGCACCTACAGCCCTACCAGCTTCCGTAGAGAGA: the ETS1 binding intensity was 757.

On to TTTTCACCCGCCTTCCCTTCAGGCTTCCTTGTTTTT, for which the ETS1 binding intensity worked out at 624.

Turning to TCTCGGCCTCGGGCGCAGCACCCGGAAGCTGAGGGG, the ETS1 binding intensity is 606.

CTCCTGGGCTTGTAGTTAGAGCATCCTGCAGCAAGG registered an ETS1 binding intensity of 611.

The sequence GCCTTGTAGGCGCTCACTTGCCCCGGAAGTACTGTT gave an ETS1 binding intensity of 1000.

As for TCCAGCCGGACGCGATGCCTGGAGGCTGCAGGCGCA, the ETS1 binding intensity came to 562.

ACAGAAGCGGCCACGTGCCTTGGCGCGCTTCCGCAC displayed an ETS1 binding intensity of 401.

The sequence TGGGGAGCAGGAAGCTGGGGGCGTTCGTGGAGGGAC had an ETS1 binding intensity of 1240.

The sequence CCGAGCGCATTTTACGTGGTGCTGCATTTCCGGTAG yielded an ETS1 binding intensity of 3930.

GCCCCGGTGGATTTGAACTCCCGCCAACTTCCCTTT yielded an ETS1 binding intensity of 355.

As for CCGAGTTGCGATTTCTCCGTTAGTGCTTCCGGGTTG, the ETS1 binding intensity is 886.

For the sequence ATGGGGAACGGGAAATACGGCGGGAACCCCAATCGC, the ETS1 binding intensity stood at 1020.

Sequence CTGACAGCTTCCGCACAAAGCGCGCTCTATTTCTCC showed an ETS1 binding intensity of 5140.

Sequence CCCATTTCCTGCTCTCCAGAGTTATCCACTGAAGTC registered an ETS1 binding intensity of 20100.

For the sequence GGGCGCGCCCTCCGCTCCCTTCCGCGCCCTGTCGAG, the ETS1 binding intensity turned out to be 341.

For the sequence GTAACTGAAATCACAGCAAGCGGAACTGTAGGTAAG, the ETS1 binding intensity was found to be 398.

In turn, GAGATTCTCTGGCTGGGTCTGTCTGTTTCCTGCTAG had an ETS1 binding intensity of 459.

As for AACCTGCAGACTTCCTGCCATGTGACAACAGGGTCT, the ETS1 binding intensity stood at 9580.

As for ACTCAGCCCAAAAAGCTAACAGCAGGAAGTGCTTGG, the ETS1 binding intensity was determined as 946.

Consider TTAGGGCTTATCCACTGACGGAAACTGTCTTGTGTC, for which the ETS1 binding intensity was found to be 463.

For GTTAAGCGCACTGCCGCTGGCTGGGTATCCGCGGCA, the ETS1 binding intensity was 320.

GAGCACAGGAAAAGCTGGTGCCAACTACAAGTGCTT: the ETS1 binding intensity came out at 532.

With AGCCGTTTCCGGCGCTCTACCCCGCCGTAGGCCGAG, the ETS1 binding intensity was 21400.

Consider TCTTCTTCCTCCCCCACCCCAAAAGTCACAGGTGAC, for which the ETS1 binding intensity amounted to 1450.

For GCGGCGCGTACGGGGGAGGAGACGGTTCCGGGGGAC, the ETS1 binding intensity turned out to be 635.

In turn, GCCGTAGCGGAAGAGTGTTCATGGTCATGTGACGCC gave an ETS1 binding intensity of 965.

ACCCCGGAAGTGTGGGCGCGGCTGCTGTTTAACCCG had an ETS1 binding intensity of 6970.

Consider AGCGTTTCCTGCCTGTCTGGGGCTGACAAACCCCAA, for which the ETS1 binding intensity was 21600.

Sequence CAGGGCCTGAGGTGCCTTGCGCAGCGGAAATGGCGC returned an ETS1 binding intensity of 805.

As to GCATTGTGCTTCCGCTCGGGGAAAGAGCGCTTACGG, the ETS1 binding intensity was found to be 10400.

Regarding AAACCTGTCGCTAGTGGGGGCCAGGAAGGATCTGTT, the ETS1 binding intensity was determined as 454.

On to CTTAGGACTTCCCGTAGATGGTGCTCTGTGCTAAGG, for which the ETS1 binding intensity worked out at 3120.

The sequence GAGTCTTCCTTCCGCGGCCCGGGCGCAGTTCTGGCT gave an ETS1 binding intensity of 1340.

Sequence TCAAAACCTGAGCACAGTATTTCCTGTAGTTTCTAT came in with an ETS1 binding intensity of 2530.

As to TGATTAGGAAACTACAGACTACCCGGAAATCAACTT, the ETS1 binding intensity worked out at 914.

As to TGGTGCACCAGACACACGAGATAAAACAGGAAGCCT, the ETS1 binding intensity is 526.

Sequence AGAATTACCAGGAAGCCGAGCGCTGCAGGCTAGCGG yielded an ETS1 binding intensity of 523.

GACAAAGACCCCAAAAAGATCCTTGAACGGAAAGCC showed an ETS1 binding intensity of 429.

Sequence TCATATCCGGCAGGAATGGGTTTTGTAGCTTTGTGC showed an ETS1 binding intensity of 18000.

ATGTCAGTAACCCCAAACGAGCCACAGGATAAGAAC: the ETS1 binding intensity was 431.

Sequence AGAGTCTTTTTTCCTGAGCGTTTGCGATTTTGACTT displayed an ETS1 binding intensity of 368.

In turn, TGTGAAGGAAGCCATGGTTTCATGTCTACGGCTCAG came in with an ETS1 binding intensity of 492.

GAGGCCGGAGAAAGGCCTGAGATGCAGGAAGCAGCT came in with an ETS1 binding intensity of 408.

For TATGTGGAGTAATCGCCTTCAGTTTCCTGGTTCTGA, the ETS1 binding intensity came to 579.

Take TGGGCCGGGGAGGAAGGCGGCTCGCTGTTCCTCCAC: the ETS1 binding intensity worked out at 334.

Consider GGTGAGCGGAGGTAGTTTATTCTTCCGTGGAGTTAA, for which the ETS1 binding intensity worked out at 476.

TAAGTGAATTTCCTGCCCGCCTCCGCCTACAGCGTA registered an ETS1 binding intensity of 8920.

Consider TCAGCGGGCGCTGAAAGCCCACGACCAGCGGAACGC, for which the ETS1 binding intensity is 306.

The sequence CGGCAGCTGCACCGAAGGGACATCTTCCGCGAGAGC had an ETS1 binding intensity of 381.

The sequence CCGCTGAGGGAACTGGAACCTCCCTCACAGGAAGGG returned an ETS1 binding intensity of 380.

As to CCGCCAACCCCAGGGCCGCGACACGGACGGGAAGCA, the ETS1 binding intensity came to 369.

For GAACACGGAAACACTGAGCTTTTACTTTGACAACAC, the ETS1 binding intensity came to 617.

Turning to GCCTCCATCCGGAGACCAGAAAGCCTGCAGGCAAGG, the ETS1 binding intensity was determined as 3900.

Regarding TGGAGTGGAGGAAGTGGTGTTATCACAGCTCAGAGG, the ETS1 binding intensity amounted to 1240.

TAACTACTTCCTTTTACTATCTACGACAATTTAATT registered an ETS1 binding intensity of 9440.

GTCTTAAGCAAAGCTACACTTACTTCCTAAGCTGTT registered an ETS1 binding intensity of 512.

GCCGCCGTAGTCGCGGCCGGTCCCCCGGAACCGTCT showed an ETS1 binding intensity of 300.

Take CAGGCCGCTCGCCGCGCACTTCCCCTACCCTTGAGG: the ETS1 binding intensity is 467.

The sequence TCACAAACCTACACGGCCCAGCCCCCAGTTCCGTTC registered an ETS1 binding intensity of 359.

In turn, GCTCTGTGATTAGCAGGTGCAACCCACGCGGAAGGG displayed an ETS1 binding intensity of 329.

CCTGCTCTGGGGCGCTTAGCAACTTCCTGCCCTGGC gave an ETS1 binding intensity of 2560.

As for AGCCGCCACTTCCTGTCTCTGAGGGTGCATGCTCTT, the ETS1 binding intensity turned out to be 36000.

In turn, TTGGGATTGTACCAGACAAAGCACTTCCTGCACTGC yielded an ETS1 binding intensity of 1720.

On to AACTGGGCGGAAAGAACGGCTAAGCGCAAGCTGCCG, for which the ETS1 binding intensity worked out at 545.

ACAGACAGCATCCTGAGCTCGTGCTTAGAACACCCT had an ETS1 binding intensity of 1300.

GCAAGATCGCGCATTAACATCTCGGAAACGGACAGC had an ETS1 binding intensity of 428.

Sequence TGGTTCATGAGGGTGCACACAGGAAATGAGAGAACG returned an ETS1 binding intensity of 3750.
